# Among all 310,000 compounds or so, about 2,200 (0.71%) showed an effect of 50% or more. Effects have a minus sign here. Some of the results follow.
# Target: human ether-à-go-go-related gene (hERG) potassium channel (human, UniProt Q12809)
# Assay: primary screen, population patch clamp on CHO cells stably expressing hERG
# human ether-à-go-go-related gene (hERG) potassium channel, sequence (Q12809 whole entry, looked up): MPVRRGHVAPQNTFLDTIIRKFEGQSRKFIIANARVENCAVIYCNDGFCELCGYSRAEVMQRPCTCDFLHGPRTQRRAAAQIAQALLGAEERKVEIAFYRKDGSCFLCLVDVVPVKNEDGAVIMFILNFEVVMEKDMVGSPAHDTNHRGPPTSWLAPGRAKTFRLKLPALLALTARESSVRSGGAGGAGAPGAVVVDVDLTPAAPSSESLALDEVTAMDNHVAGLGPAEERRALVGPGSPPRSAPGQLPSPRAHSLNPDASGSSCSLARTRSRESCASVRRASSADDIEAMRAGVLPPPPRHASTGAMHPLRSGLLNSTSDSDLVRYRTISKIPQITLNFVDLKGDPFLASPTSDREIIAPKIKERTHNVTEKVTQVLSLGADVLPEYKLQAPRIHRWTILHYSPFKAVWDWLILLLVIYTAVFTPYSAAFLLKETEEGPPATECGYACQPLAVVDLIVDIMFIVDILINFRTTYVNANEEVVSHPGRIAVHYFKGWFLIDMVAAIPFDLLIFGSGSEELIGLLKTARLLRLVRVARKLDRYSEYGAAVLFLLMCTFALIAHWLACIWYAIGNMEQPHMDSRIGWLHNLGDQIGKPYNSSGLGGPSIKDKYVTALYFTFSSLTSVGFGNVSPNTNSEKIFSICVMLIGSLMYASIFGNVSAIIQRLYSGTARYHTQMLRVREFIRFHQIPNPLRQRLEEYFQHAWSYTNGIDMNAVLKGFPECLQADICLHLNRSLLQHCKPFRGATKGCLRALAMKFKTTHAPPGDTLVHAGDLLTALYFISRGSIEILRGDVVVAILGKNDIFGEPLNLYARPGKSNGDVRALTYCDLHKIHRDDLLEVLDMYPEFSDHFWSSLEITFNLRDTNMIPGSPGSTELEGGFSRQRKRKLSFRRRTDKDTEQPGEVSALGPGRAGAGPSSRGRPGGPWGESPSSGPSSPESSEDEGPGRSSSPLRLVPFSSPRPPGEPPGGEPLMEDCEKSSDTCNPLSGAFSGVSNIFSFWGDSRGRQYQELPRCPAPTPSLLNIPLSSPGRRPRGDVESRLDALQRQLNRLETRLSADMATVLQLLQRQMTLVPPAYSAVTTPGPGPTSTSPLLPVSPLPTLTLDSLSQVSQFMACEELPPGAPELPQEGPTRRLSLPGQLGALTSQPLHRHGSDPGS
row,SMILES,"hERG current change (%, negative = inhibition) at 1uM [%]"
1,Cc1cc(C)n(-c2nc(C)nc3sc4c(c23)CCC(C)C4)n1 (stereo not drawn),1.17
2,C=CCn1c(CSc2nc3ccccc3s2)nnc1SCC(=O)NCc1ccccc1,7.27
3,O=C(O)c1cc(-c2ccc(/C=N/N3C(=O)C4C5C=CC(C6CC56)C4C3=O)o2)ccc1Cl (stereo not drawn),13.2
4,COc1ccc(-c2cc3ccc(OCC(=O)NCC4CCC(C(=O)O)CC4)cc3oc2=O)cc1 (stereo not drawn),5.49
5,CCOC(=O)c1sc(NC(=O)COC(=O)Cn2cnc3ccccc32)c(C(=O)OCC)c1C,10.2
6,Cc1nnc(NC(=O)c2cccc(S(=O)(=O)N3CCOCC3)c2)s1,12.6
7,O=C(OCC(=O)N1CCc2ccccc21)c1cccnc1Cl,9.81
8,COC(=O)c1c(C)oc(C)c1S(=O)(=O)NC(C)(C)C,7.83
9,COc1ccc(C(C)=O)cc1COc1ccc(Cl)cc1Cl,7.9
10,C=CCc1cc(Cl)ccc1OCCOCCNC(C)(C)C.O=C(O)C(=O)O,-1.74
11,Cc1c(C)c2ccc(OCC(=O)N3CCC(C(=O)O)(c4ccccc4)CC3)c(C)c2oc1=O,11.8
12,CSc1ccccc1OCc1cc(C(=O)N2CCc3c(Cl)cccc3C2)no1,7.75
13,C=CCn1cc(C(=O)N2CCN(C)CC2)c(=O)c2cc(S(=O)(=O)N3CCCC3)ccc21,8.25
14,c1cnc2nc(CSc3ncn[nH]3)cn2c1,2.33
15,Brc1cccc(CN2CCN(c3ncccn3)CC2)c1,14.6
16,Nc1ccc2c(c1)ncn2CCCn1cnc2cc(N)ccc21,7.62
17,O=C(NCC(c1ccco1)N1CCc2ccccc2C1)C(=O)Nc1ccccc1F (stereo not drawn),4.26
18,CCCCN(C)S(=O)(=O)c1cc(Br)cc2c1N(C(=O)C1CC1)CC2,1.09
19,CCc1nnc(NS(=O)(=O)c2ccc(NC(=O)c3cccc4ccccc34)cc2)s1,9.41
20,Cc1cnc(C(=O)OCc2csc(CC(=O)Nc3ccccc3C)n2)cn1,8.06
21,CCc1ccc(/C=N/NC(=O)c2c[nH]c3ccccc23)s1,-0.276

row,SMILES,"hERG current change (%, negative = inhibition) at 1uM [%]"
1,O=C1NC(=O)[C@]2(Cc3ccccc3N3CCN(c4ccccc4)CC32)C(=O)N1Cc1ccccc1 (stereo partly drawn),3.67
2,Cc1c(/C=C/C(=O)c2cccs2)cnn1C,11.5
3,Nc1cccc2c1C(=O)N(C(=O)c1cccc(S(=O)(=O)N3CCCCCC3)c1)C2=O,-8.06
4,Cc1cc(C)c(O)c(C2(O)C(=O)c3ccccc3C2=O)c1,13.5
5,O=C(CN1CCOCC1)Nc1ccc(NC(=O)c2ccccc2F)cc1,12
6,O=C(Cc1ccccc1F)Nc1ccc2c(c1)CCC2,16
7,CCC1(CC)NC(=O)N(CC(=O)OCC(=O)Nc2ccc(OC(F)(F)F)cc2)C1=O,-1.24
8,O=C1CC(c2ccccc2)CN1C(=O)c1cccc([N+](=O)[O-])c1 (stereo not drawn),0.412
9,COc1cccc(CNCc2cc(OC)cc(OC)c2)c1.O=C(O)C(=O)O,0.211
10,O=S(=O)(c1ccc(F)cc1)c1nc(-c2ccco2)oc1Nc1ccc(F)cc1,-1.69
11,COc1ccc(CC2C(=O)N(C)C(=O)N(C)C2=O)c(OC)c1,13.8
12,CN1CCN(c2ccc(C(F)(F)F)cc2NC(=O)Nc2ccccc2)CC1,10.8
13,O=C(O)COc1ccccc1/C=C1\SC(=S)N(c2cccnc2)C1=O,2.48
14,Cc1ccc(-c2nnc3sc(CCc4ccccc4)nn23)cc1,11.1
15,COc1ccc(CCN2C(=O)C3C4C=CC(C3C2=O)C2C(=O)N(CCc3ccc(OC)c(OC)c3)C(=O)C42)cc1OC (stereo not drawn),-6.83
16,COc1ccc(C(CCN2CCCC(C)C2)c2c(OC)cc(OC)c3c(C)cc(=O)oc23)cc1 (stereo not drawn),-21.6
17,O=C(O)CCc1nc2cc(Cl)ccc2n(Cc2ccccc2)c1=O,15.5
18,COc1cccc(NC(=O)CN(C)C(=O)c2ccc(NS(=O)(=O)c3ccc(F)cc3)cc2)c1,10.7
19,CCc1ccc(C2=NNC(=Nc3c(C)n(C)n(-c4ccccc4)c3=O)SC2)cc1,28.1
20,O=C(CN1C(=O)c2ccccc2C1=O)OCC(=O)N1CCc2ccccc2C1,2.71
21,C=CCNc1nc2c(c(=O)[nH]c(=O)n2C)n1CCOc1ccccc1,9.4

# — publication PMC4336329 (PLoS ONE, 2015)
